Sequences with one replicate were seen in a single cluster, so their values are uncertain.
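Note: ATP exposure 15 min at 22 °C before imaging.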

This data set relates to ATP. Briefly: switch fluorescence ratio, 500 uM ATP over buffer (Cy3 cluster intensity, sum of 5 cycles each) (fold (ratio)); higher = stronger signal-on switching upon ATP binding; sequences stand for … in TCGTCGGCAGCGTCAGATGTGTATAAGAGACAGTTTTTTTTTTTTTTTTTTTTTTTTT…TC. As to conditions: aptamer strand: ATP DNA aptamer (quencher-CACCTGGGGGAGTATTGCGGAGGAAGG + anchor), 100 nM annealed; ATP concentration: 500 uM; one replicate. Put shortly: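 After annealing to 100 nM quencher-labelled ATP aptamer, Cy3-labelled switching-strand clusters on a modified Illumina MiSeq flow-cell were imaged in selection buffer. A second image followed after 15 min with 500 uM ATP at 22 °C, and five such buffer/ATP cycles were done, each separated by NaOH stripping and re-annealing. The fluorescence ratio, averaged per switch-domain sequence, is summed target-cycle over summed buffer-cycle Cy3 intensity per cluster, with clusters outside 100-1000 RFU excluded.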
Turning to ACCCCGCTTG, the switch fluorescence ratio came to 1.14.
The same measure for TTTTCGCCCT: 1.01.
For TTCTGTGTAG, the switch fluorescence ratio is 0.987.
The same measure for AGAGTAAGCC: 0.997; for CTGGATGCG: 0.971.
Next, CAAGAGAGAA: 0.936; TCCGTCACGC: 2.03; TTAAAGGAGT: 1.
The same measure for AAGCTGAGGC: 0.998.
Turning to GCCTTCCTTC, the switch fluorescence ratio amounted to 2.
With TGAACATGCG, the switch fluorescence ratio was 1.
The same measure for GCCTGACATT: 1.02.
Next, TATATGTAGG: 1.06; TGCTTAACGG: 0.948; CTTTGTTGGG: 0.954.
The same measure for TGCCATTTA: 1; for ATGTTCTTC: 0.979.
For TAGGGAATAA, the switch fluorescence ratio worked out at 1.02.
For the sequence TATTGTGAGA, the switch fluorescence ratio came to 1.01.
Turning to CAAGTACCAG, the switch fluorescence ratio worked out at 1.27.
Regarding AGGCAGGAAC, the switch fluorescence ratio worked out at 1.29.
Take TAGTTAATTC: the switch fluorescence ratio was 0.982.
Next, AATATACCGA: 1.02; GAGCTCTTGA: 0.98.
The same measure for TTCAGTAAGT: 1.04.
Take CTTAGTATTA: the switch fluorescence ratio is 0.99.
Next, TTGCCAGGGC: 0.974; TCTTTGCCTT: 1.03; ATGGGTACTC: 0.989.
Next, AGAGCTCCCA: 1.02.
For AGGCCTTAG, the switch fluorescence ratio is 0.994.
CCGGACTTTG: the switch fluorescence ratio is 1.
Next, GCCGGTTTGT: 1.01; CGGTGAATCG: 0.985.
Next, TTCGACTCAC: 1.09; AGGTACACCG: 1.02.
Next, AGAAAAATCA: 0.981.
Take AGTCCGACCT: the switch fluorescence ratio was found to be 1.16.
The same measure for AAAGTAAGGC: 1.02.
On to GTGGATGTCA, for which the switch fluorescence ratio came out at 1.01.
Next, GATAGACCAC: 1.05; AACCGCATTA: 4.15.
On to CAAGGCAGGG, for which the switch fluorescence ratio came to 0.988.
The same measure for GTTGAATATC: 0.999; for GGCTATC: 1.02.
The same measure for GCAACGAATG: 1.03.
With CCCGGGTAGC, the switch fluorescence ratio is 1.07.
AGCCATTACA: the switch fluorescence ratio worked out at 1.02.
The same measure for AGTGCTGTTT: 0.956; for TGGATTCGGT: 0.971; for CGGCTAGGCT: 1.
Turning to GATCACTCAC, the switch fluorescence ratio was found to be 1.29.
Next, CAGAGGGCCA: 0.969; GTTCGGGCAG: 0.971; CCCCTGTGTC: 1.94.
The same measure for TGTAACGCGA: 1.28.
Regarding AGAGGGCGCC, the switch fluorescence ratio turned out to be 1.03.
Next, GTCACGGAGG: 1.01; GAGGGCTCTA: 1.04; CGGCTCACGT: 1.02.
The same measure for TATTATTGTG: 0.983; for TCGTTCTTT: 0.953; for GGCTGGGGAA: 1.01.
Next, CCATAGTAGT: 1.13; ATTGTATAGT: 1.05; GCAAGAGAGA: 0.99.
As to TCCCTGTGCC, the switch fluorescence ratio came out at 1.09.
The same measure for TACCCAGGGT: 1.18.
Regarding CGTCGTAACT, the switch fluorescence ratio came to 0.981.
On to TTATACAGCG, for which the switch fluorescence ratio amounted to 0.965.
Next, AGATGGGCCG: 1.04; CCCGGGTTTG: 1.05; GACATGAAAG: 1.01.
Next, ACAGGTATGA: 1.03.
Next, TGGGACGAT: 0.995; AAGAGCCCAC: 0.981.
In the case of GCAAAGGTTG, the switch fluorescence ratio was 0.997.
As to ACATATTGCG, the switch fluorescence ratio is 1.03.
Consider ACTGAACGTG, for which the switch fluorescence ratio was 1.23.
As to AATCAGGAAA, the switch fluorescence ratio stood at 1.
Regarding AAATCACTTT, the switch fluorescence ratio stood at 0.991.
Next, GCGTTATGCA: 1.03; CTCTTGTGAT: 1.02.
CTGTATGGTG: the switch fluorescence ratio was determined as 1.01.
With GTTGCTCAG, the switch fluorescence ratio came to 1.
Next, TTAAAGATG: 1.01.
The same measure for ACTAGGGGGT: 1.01.
Next, GGTGTCCCTG: 1.04; ACGTTATT: 1.19.
For GCAGCGTCTA, the switch fluorescence ratio was 0.96.
The same measure for TCGTGCTATG: 1.03; for CTAGGACG: 1.
Consider ACCTACGAAC, for which the switch fluorescence ratio stood at 1.35.
The same measure for AACTTGCCCA: 1.01; for CAAATAGGGT: 0.949.
The same measure for TCGCTATTCA: 1.02; for ATGACGGACC: 1.07; for ATAGTTGCG: 1.02.
The same measure for CTTGTCGAGC: 0.997; for TGTCCGCTGG: 1.29; for GTGCACGATG: 0.987.
Turning to GTTAGAACAG, the switch fluorescence ratio was found to be 0.98.
Next, TTGTACCTGT: 0.967.
For the sequence TTTTCTTTGA, the switch fluorescence ratio was determined as 1.02.
The same measure for TCTATGAGG: 0.978.
The same measure for TGACAGCTGT: 1.04; for GACCCGAGTT: 0.957.
Next, ACGAGGAGCG: 1.01.
As to AAACCGAATT, the switch fluorescence ratio worked out at 1.08.
CAGGTTCATA: the switch fluorescence ratio stood at 0.999.
Next, AGACGCTTTC: 1.6; TCTAAGATGC: 1.22.
The same measure for TATAGAAGGA: 0.971.
The same measure for ACGTCTCAA: 0.977; for AACATCCTTA: 0.994.
With GAGGTTACAA, the switch fluorescence ratio is 1.03.
For the sequence CCCTCTTAA, the switch fluorescence ratio is 1.05.
Next, GGGTAAAGAC: 1.06; AAGGCGCTGG: 0.994.
Take AATCGTAGGT: the switch fluorescence ratio stood at 0.985.

Source of the values: the supplement of paper PMC10126150.
